Paper PMC4081100
Only a part is listed here, and it is no random draw. For some assays here: At the low end of the ranking, values are background and their order means little. This is one part of the list. For some assays here: The exact form of the protein is not confirmed.

Experiments:
Assay in all cases: universal protein binding microarray (PBM)
Settings in all cases: transcription factors of Arabidopsis thaliana; high values mean tight binding; most listed sequences are background and not binding sites; double strand, one strand shown
GST-ANAC092(1-176) = molecular target: T1, GST-ANAC092(1-176) (UniProt Q9FKA0)
T1 sequence: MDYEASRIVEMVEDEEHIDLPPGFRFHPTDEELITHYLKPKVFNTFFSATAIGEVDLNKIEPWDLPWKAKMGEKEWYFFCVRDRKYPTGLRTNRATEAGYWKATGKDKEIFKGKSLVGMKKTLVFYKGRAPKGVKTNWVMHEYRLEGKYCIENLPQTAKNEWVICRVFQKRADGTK

GST-NTL6(1-168) = GST-NTL6(1-168) (UniProt Q9SCK6)
GST-ANAC019 NAC domain = molecular target: T2, GST-ANAC019 NAC domain (UniProt Q9C932)
T2 sequence: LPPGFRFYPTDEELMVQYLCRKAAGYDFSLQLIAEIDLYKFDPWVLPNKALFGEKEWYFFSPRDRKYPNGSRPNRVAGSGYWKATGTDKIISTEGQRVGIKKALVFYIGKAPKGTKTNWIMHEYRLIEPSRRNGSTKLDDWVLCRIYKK

GST-ATAF1 NAC domain = molecular target: T3, GST-ATAF1 NAC domain (UniProt Q39013)
T3 sequence: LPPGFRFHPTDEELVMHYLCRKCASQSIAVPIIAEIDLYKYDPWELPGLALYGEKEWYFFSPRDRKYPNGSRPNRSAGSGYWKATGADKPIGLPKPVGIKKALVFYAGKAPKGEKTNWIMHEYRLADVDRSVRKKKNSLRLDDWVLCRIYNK

[1] = molecular target: T4, GST-ANAC092(1-285) full length (UniProt Q9FKA0)
T4 sequence: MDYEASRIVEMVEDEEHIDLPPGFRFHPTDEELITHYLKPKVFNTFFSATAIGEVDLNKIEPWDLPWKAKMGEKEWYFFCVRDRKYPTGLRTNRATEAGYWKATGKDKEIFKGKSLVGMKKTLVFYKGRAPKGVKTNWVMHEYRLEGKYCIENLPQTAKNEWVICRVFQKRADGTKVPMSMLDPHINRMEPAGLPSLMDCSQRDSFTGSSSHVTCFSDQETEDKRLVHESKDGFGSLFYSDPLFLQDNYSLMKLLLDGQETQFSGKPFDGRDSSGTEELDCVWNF

GST-NAP(1-166) = molecular target: T5, GST-NAP(1-166) (UniProt O49255)
T5 sequence: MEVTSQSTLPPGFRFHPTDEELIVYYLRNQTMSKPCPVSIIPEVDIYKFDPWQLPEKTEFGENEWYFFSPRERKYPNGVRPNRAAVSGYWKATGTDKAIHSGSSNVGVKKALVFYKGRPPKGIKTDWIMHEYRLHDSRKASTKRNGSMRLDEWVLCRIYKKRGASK

GST-NST2(1-184) = molecular target: T6, GST-NST2(1-184) (UniProt Q9M274)
T6 sequence: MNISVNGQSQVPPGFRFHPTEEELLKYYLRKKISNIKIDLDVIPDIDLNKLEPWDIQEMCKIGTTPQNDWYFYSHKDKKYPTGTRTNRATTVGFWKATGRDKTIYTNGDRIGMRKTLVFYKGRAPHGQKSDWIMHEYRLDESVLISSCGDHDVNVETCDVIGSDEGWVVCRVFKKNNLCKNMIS

GST-NTL8 NAC domain = molecular target: T7, GST-NTL8 NAC domain (UniProt Q9XIN7)
T7 sequence: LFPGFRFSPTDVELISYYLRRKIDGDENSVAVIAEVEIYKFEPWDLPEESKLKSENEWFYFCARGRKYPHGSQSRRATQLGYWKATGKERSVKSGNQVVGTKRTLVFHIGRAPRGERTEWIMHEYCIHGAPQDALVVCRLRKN

GST-SND1(1-203) = molecular target: T8, GST-SND1(1-203) (UniProt Q9LPI7)
T8 sequence: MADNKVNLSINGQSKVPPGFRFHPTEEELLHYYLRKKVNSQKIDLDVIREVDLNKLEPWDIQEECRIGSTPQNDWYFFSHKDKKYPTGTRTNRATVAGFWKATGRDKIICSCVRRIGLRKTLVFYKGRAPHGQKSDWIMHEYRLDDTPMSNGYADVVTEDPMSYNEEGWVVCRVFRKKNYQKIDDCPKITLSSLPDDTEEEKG

GST-VND3 NAC domain = molecular target: T9, GST-VND3 NAC domain (UniProt Q9FH59)
T9 sequence: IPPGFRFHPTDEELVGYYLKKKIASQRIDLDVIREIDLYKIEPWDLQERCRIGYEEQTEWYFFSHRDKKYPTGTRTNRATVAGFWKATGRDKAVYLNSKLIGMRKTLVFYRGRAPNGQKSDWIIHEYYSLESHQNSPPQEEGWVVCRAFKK

GST-VND7 NAC domain = molecular target: T10, GST-VND7 NAC domain (UniProt Q9C8W9)
T10 sequence: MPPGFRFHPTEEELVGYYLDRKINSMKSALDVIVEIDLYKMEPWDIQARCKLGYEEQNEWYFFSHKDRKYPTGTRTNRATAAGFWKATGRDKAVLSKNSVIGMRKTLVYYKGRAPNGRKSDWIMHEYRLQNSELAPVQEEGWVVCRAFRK

[2] = molecular target: T11, GST-VOZ2 (Arabidopsis thaliana) (UniProt Q9SLB9)
T11 sequence: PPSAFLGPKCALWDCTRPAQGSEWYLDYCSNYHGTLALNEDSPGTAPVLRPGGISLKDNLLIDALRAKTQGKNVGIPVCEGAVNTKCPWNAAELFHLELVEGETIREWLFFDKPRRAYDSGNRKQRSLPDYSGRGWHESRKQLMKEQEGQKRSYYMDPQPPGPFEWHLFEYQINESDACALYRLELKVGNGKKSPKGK

GST-ANAC055(1-171) = molecular target: T12, GST-ANAC055(1-171) (UniProt Q9LDY8)
T12 sequence: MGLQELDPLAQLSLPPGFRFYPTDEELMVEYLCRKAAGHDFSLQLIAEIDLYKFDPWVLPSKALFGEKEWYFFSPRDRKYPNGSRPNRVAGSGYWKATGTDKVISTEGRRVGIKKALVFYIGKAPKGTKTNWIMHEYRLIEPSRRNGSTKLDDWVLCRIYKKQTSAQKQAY

Sequence	binding signal (GST-ANAC092(1-176)) [E-score]	binding signal (GST-NTL6(1-168)) [E-score]	binding signal (GST-ANAC019 NAC domain) [E-score]	binding signal (GST-ATAF1 NAC domain) [E-score]	binding signal [1] [E-score]	binding signal (GST-NAP(1-166)) [E-score]	binding signal (GST-NST2(1-184)) [E-score]	binding signal (GST-NTL8 NAC domain) [E-score]	binding signal (GST-SND1(1-203)) [E-score]	binding signal (GST-VND3 NAC domain) [E-score]	binding signal (GST-VND7 NAC domain) [E-score]	binding signal [2] [E-score]	binding signal (GST-ANAC055(1-171)) [E-score]
TATGGTCA	-0.189	-0.0519	-0.105	-0.0664	0.0396	0.0222	-0.0876	-0.15	-0.0139	0.0521	-0.146	-0.0673	
GGTGGTCA	-0.0782	-0.087		-0.0193	-0.0565	-0.0135	-0.0307	-0.0727	-0.0138	-0.051	-0.0635	0.0505	-0.0723
AAAGTCAA	0.0335	0.0854	0.0139		0.017	-0.0688		-0.0139	0.118	0.0095	-0.0243	0.0357	
GCGTTGAC	0.0425	-0.0732		-0.0366	-0.0529		0.02	-0.0842	-0.0365	0.000825	0.0459	0.026	-0.0149
AAGTCAGC	-0.0826		-0.111	-0.168	-0.0909	-0.0636	-0.0184	0.00726	-0.0905	-0.101	-0.126	-0.171	-0.124
TGACTGCA	0.036	0.0778	0.0411	0.0918	-0.00967	0.00894	-0.0202	-0.102	-0.0654	-0.0536	-0.0195	-0.00178	
GACTTGAC	-0.056	0.0331	-0.0379			-0.015	0.0163	0.0707	0.0161	0.0396	0.00069	0.0802	
GCGTGGAC		-0.0922	0.0892	-0.0188	0.19	-0.00034	-0.0511	-0.0292	0.00453	-0.087	0.0211	0.0297	-0.176
GCGAAGAC	0.0257			-0.0191	-0.00826		-0.103	0.109	-0.0256	-0.00336	0.0384	-0.0652	
GCTGACCA	-0.141	-0.225		-0.207	-0.129	-0.0578	-0.173	-0.0524	-0.0785	-0.0474	-0.0534	-0.207	-0.158
GTTGACGA	-0.16	-0.0906	-0.029		-0.18	-0.123	0.0307	-0.2	-0.0807	-0.0601	-0.0528	0.0677	0.0147
AGTCAATG	-0.0193	-0.0344	-0.114		-0.019	-0.1		-0.113	-0.0272	-0.00324	-0.0476	0.0261	0.0211
GGGTCAAC		-0.0318	0.0467	-0.0697		-0.0703	-0.128	-0.0572	-0.0744	-0.15	-0.0545	0.00599	-0.0601
ACTGGTCA		-0.124	-0.0184	-0.103	-0.0168	-0.0704	-0.11	-0.0498	-0.0103	0.0448	-0.142	-0.105	-0.0803
TGGGTCAA		-0.108	0.00605	-0.0702	0.159	-0.0251	-0.00125	0.0706	0.0162	-0.00758	-0.0843	-0.00899	-0.055
ACTTGACC	0.0892	0.028		0.0108		-0.105	0.11	0.0948	0.0398	0.0371	-0.0669	0.0516	0.0306
CTGACCAC	-0.114	-0.0372		-0.0675	-0.00836	-0.123	-0.0133	-0.121	0.0107	0.0167	-0.0753	-0.00118	0.0073
GTTGACCA		-0.0983	0.0144	0.0254	-0.005	-0.00293	-0.0132	-0.0933	-0.119	0.0191	-0.0105	0.0502	0.0101
GGCTTGAC		-0.107	0.0223	0.00809	0.0438	0.0264	-0.0529	-0.0385	-0.063	-0.0687	-0.0664	-0.0945	-0.000295
CATTTGAC	0.0363	0.0255	-0.0424		0.00911	-0.00754		-0.0646	0.0315	0.105	0.0331	0.11	
GAAGGTCA	-0.0252		-0.0397	0.0285	-0.0592	-0.123	-0.0121	0.0878	-0.08	0.0489	-0.143	-0.0834	0.00707
GTTTGACA	-0.0657	-0.0133	-0.0164		-0.036	-0.0348		-0.105	-0.1	-0.0562	-0.0349	-0.0111	0.0647
AGGTCAAT	0.0119	0.137	-0.0133	-0.014	0.0283	0.0221	0.0163	-0.0486	0.0275	0.0493	0.0357	0.102	
CTAAGTCA	-0.194		-0.0986	-0.165	-0.102	-0.135	-0.00947	-0.161	0.0346	-0.0318	-0.159	-0.11	-0.156
GTCAAAGA	0.0277	-0.00103	0.0365	0.0309		-0.0603		0.00195	0.167	0.0371	0.00674	0.0504	
